#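 In this assay, cells in 96-well plates receive the compound at five concentrations for 48 hours. Endpoints are linearly interpolated between the surrounding concentrations. GI50: concentration for 50% inhibition of growth.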 Active and inactive are the calls of the source. Cut-off read from the data, not from the text of the source: active = GI50 up to about 1.1 µM and inactive = higher.
# System: NCI-H322M
# Assay: NCI-60 cell line screen, 48 h
row,SMILES,GI50
1,Cc1cc(N2CCN(C)CC2)n2nc(-c3ccc(Cl)cc3)nc2n1,inactive: 69.3 µM
2,NCC1OC(n2cnc3c(=O)[nH]c(N)nc32)C(O)C1O (configuration not stated),inactive: > 100 µM
3,N#CC1=C(N)N(c2ccccc2)C(c2ccccc2)C1(C#N)C#N (configuration not stated),inactive: 19.7 µM
4,N#Cc1c(C#N)c(-c2ccccc2)n(-c2ccccc2)c1N,inactive: > 100 µM
5,CC(=O)O[C@@]12CO[C@@H]1C[C@@H](O)[C@@]1(C)C(=O)[C@H](O)C3=C(C)[C@@H](OC(=O)[C@H](O)[C@@H](NC(=O)c4ccccc4)c4ccccc4)C[C@@](O)([C@@H](OC(=O)c4ccccc4)C12)C3(C)C (some centres not stated),active: 0.0588 µM
6,CCC/C=C/c1cc2c(cc1O)CC[C@@H]1[C@@H]2CC[C@]2(C)[C@@H](O)CC[C@@H]12,inactive: 16.9 µM
7,O=[N+]([O-])c1cc([N+](=O)[O-])c(/C=C/c2ccc(Cl)c(Cl)c2)cc1/C=C/c1ccc(Cl)c(Cl)c1,inactive: 23.8 µM
8,CC1=CC(=O)/C(=C/NC(=S)c2ccccc2)C(=O)O1,inactive: > 100 µM
9,c1ccc2c(c1)SCCCSCCCS2,inactive: > 100 µM
10,CCN1CCC(O)(c2ccc(Cl)c(Cl)c2)C(C(=O)c2ccc(Cl)c(Cl)c2)C1 (configuration not stated),inactive: 14.6 µM
11,C1=C\SS/C=C\SS/C=C\SS/C=C\SS/1,inactive: > 100 µM
12,Nn1c(S)nnc1NNC(=O)C(=O)Nc1cc(Cl)c(Cl)cc1Cl,inactive: > 100 µM
13,Oc1ccccc1/C=N/N1C(=S)N(c2ccccc2)C(=N\c2ccccc2)/C1=N/c1ccccc1,inactive: 14.4 µM
14,COC(=O)[C@@H](NS(=O)(=O)CC12CCC(CC1)C2(C)C)C(C)(C)C,inactive: > 100 µM
15,COc1cc(C2C(Cl)C(=O)N2NC(=O)c2ccc(NC(C)=O)cc2)ccc1O (configuration not stated),inactive: > 100 µM
16,Clc1ccc2c(c1)[nH]c1c2nc2sccn21,inactive: > 100 µM
17,Cc1ccc2nc(/C=N/c3ccccc3Cl)cc(C)c2c1,inactive: > 100 µM
18,CCC[N+](C)(C)CCCNC(=O)c1c(O)c2ccccc2[nH]c1=O,inactive: > 100 µM
19,O=C(NO)c1ccc(OCc2cccc(Cl)c2)cc1,inactive: 7.48 µM
20,C[C@H]1C(=O)C2=C[C@H]1CCC(=O)[C@]1(C)CCCC(C)(C)[C@H]1C[C@H]2O,inactive: > 100 µM
21,NS(=O)(=O)c1ccc(NC(=O)N/N=C/c2ccccc2O)cc1,inactive: 90.2 µM
22,CCOc1ccc(NC(=O)C(=O)C2C(=O)Nc3ccccc3[S+]2[O-])cc1 (configuration not stated),inactive: > 100 µM
23,CO/C(=N\N=Cc1ccccc1)c1ccncc1,inactive: > 100 µM

row,SMILES,GI50
1,CCOC(=O)c1cc(C2=C(S)N(CC(C)CC)CC2)c(C(=O)CC)[nH]1 (configuration not stated),inactive: 23.9 µM
2,O=C(c1ccccc1)c1ccc2nc3n(c2c1)C(c1c(Cl)cccc1Cl)SC3 (configuration not stated),inactive: 10.3 µM
3,CC(C)(C)C1CCC2c3c([nH]c4ccccc34)C3C(=O)N(c4ccc([N+](=O)[O-])cc4)C(=O)C3C2C1 (configuration not stated),inactive: 29.4 µM
4,CC1=C(C)[C@@]2(C)O[C@@]2(C)O[C@@]2(C)O[C@@]12C,inactive: > 100 µM
5,O/N=C1\C=Cc2nn(-c3ccccc3)nc2\C1=N/O,inactive: 8.15 µM
6,[O-][n+]1onc2c1CCC(=N\O)/C2=N/Nc1ccccc1,inactive: > 100 µM
7,CCOC(=O)NN(C(=O)OCC)C(C(=O)c1ccc(Cl)cc1)=C1NCCN1,inactive: > 100 µM
8,COc1cc(/C=C(\C#N)c2ccccn2)cc(Br)c1O,inactive: > 100 µM
9,CCOC(=O)c1c(/C=N\Nc2ccccc2)nc2ccccc2c1-c1ccccc1,inactive: > 100 µM
10,NCCCOCC(=O)O,inactive: > 100 µM
11,CC(=O)NC(CCCCNC(=O)OC(C)(C)C)C(=O)O (configuration not stated),inactive: > 100 µM
12,NCCOCn1cc(Cc2cccc(OCc3ccccc3)c2)c(=O)[nH]c1=O,inactive: > 100 µM
13,O=c1c2cccnc2ncn1CCCN1CCOCC1,inactive: > 100 µM
14,O=C1CCCn2c3ccccc3c3ccnc1c32,inactive: 38.9 µM
15,COCc1nc2c(OC)c(-c3nc4ccc(N5CCN(C)CC5)cc4[nH]3)cc(OC)c2[nH]1,inactive: 75.2 µM
16,COCC1OC(S(=O)(=O)c2ccccc2)C(O)C(OC)C1OC (configuration not stated),inactive: > 100 µM
17,C#CCOCC12C=CC(O1)C1C(=O)N(C)C(=O)C12 (configuration not stated),inactive: 70.1 µM
18,CC1(C)C[C@H]2C=C(C=O)[C@]34C[C@]3(C(=O)OC4O)[C@H]2C1 (some centres not stated),inactive: 5.52 µM
19,Cc1ccc(Sc2ccccc2N)cc1,inactive: 81.8 µM
20,Cc1ccnc2sc3ccccc3c(=O)c12,inactive: 36.6 µM
21,N#CC1=C(S)N(C2OC(CO)C(O)C(O)C2O)C(c2ccccc2)=CC1c1ccccc1 (configuration not stated),inactive: > 100 µM
22,COC(=O)Nc1nc2cc(Br)ccc2[nH]1,inactive: 36.6 µM
23,c1ccc(-c2nc3ccccc3nc2SCc2cccnc2)cc1,inactive: > 100 µM

row,SMILES,GI50
1,Oc1ccc(SCc2ccc(NCc3ccccc3)cc2)cc1,inactive: 18.6 µM
2,O=C(O)C1CCCN1C(=O)c1cc(Cl)ccn1 (configuration not stated),inactive: > 100 µM
3,C/C(=N\NS(=O)(=O)c1ccc(C)cc1)C(CN1CCOCC1)C(c1ccccc1)c1c(O)c2ccccc2oc1=O (configuration not stated),inactive: > 100 µM
4,CC(C)(Oc1ccc(Cl)cc1)C(=O)N(C(=O)N1CCN(c2ccccc2)CC1)c1ccccc1,inactive: 51.6 µM
5,COC(=O)NNC(c1ccc(Cl)cc1)c1ccc(Cl)cc1,inactive: 16.9 µM
6,Cc1[nH]c(=O)nc(S)c1C(=O)NC1C2CCCCC2NC2CCCCC21 (configuration not stated),inactive: 22.2 µM
7,CC(C)(C)OC1=C(OC(C)(C)C)C(O)(c2ccccc2)C1=O (configuration not stated),inactive: > 100 µM
8,O=C(c1cc2ccccc2[nH]1)N1C2CCC1CN(CCOC(c1ccc(F)cc1)c1ccc(F)cc1)CC2 (configuration not stated),inactive: > 100 µM
9,Cc1cc(C)n2nc3nc(N)c(C#N)c(-c4ccccc4)c3c2n1,inactive: > 100 µM
10,CC1(C)CC(=O)C2(CC(CSc3ccccc3)C(CS(=O)(=O)c3ccccc3)C2)C(=O)C1 (configuration not stated),inactive: > 100 µM
11,O=C(NCCn1ccnn1)Nc1ccccc1,inactive: > 100 µM
12,CNC(=O)/C=C/C1=CN2C(=O)c3ccc(C)c(O)c3NC(OC)C2C1 (configuration not stated),active: < 0.0177 µM
13,CC(C)OC(=O)C1=C(O)c2ccccc2S(=O)(=O)N1,inactive: > 100 µM
14,CCCCCCCCCCN(CCCCCCCCCC)C(=O)COc1c2cc(C(C)(C)C)cc1Cc1cc(C(C)(C)C)cc(c1OCC(=O)N(CCCCCCCCCC)CCCCCCCCCC)Cc1cc(C(C)(C)C)cc(c1OCC(=O)N(CCCCCCCCCC)CCCCCCCCCC)Cc1cc(C(C)(C)C)cc(c1OCC(=O)N(CCCCCCCCCC)CCCCCCCCCC)C2,inactive: 18.6 µM
15,Nc1nc(-c2ccccc2)cc(-c2cc(Cl)ccc2O)n1,inactive: 95.5 µM
16,NC1=CN(CCCO)C2=N/C(=C\c3ccco3)C(=O)N12,inactive: > 100 µM
17,CN1/C(=N\c2ccccc2)S/C1=N/c1ccccc1,inactive: 95.5 µM
18,Cc1cc(C)nc(NC(=S)Nc2ccccc2Cl)c1,inactive: > 100 µM
19,COC(=O)CCC1=NCC(C)(C)O1,inactive: > 10 µM
20,O=C1NC(N2CCOCC2)=N/C1=C\c1ccccc1,inactive: > 100 µM
21,COc1ccc2c3c([nH]c2c1[N+](=O)[O-])C(C)N(C)CC3 (configuration not stated),inactive: > 100 µM
22,Cc1c(-c2ccc(O)c(O)c2)oc(=O)c2c(O)cccc12,inactive: 19.6 µM
23,CCOC(=O)Cn1nnc2cc(Nc3nc4ccccc4nc3C(=O)OCC)ccc21,inactive: > 100 µM

row,SMILES,GI50
1,CCN(CC)CCNc1ccc([N+](=O)[O-])c2nc3ccccc3c(N)c12,active: 0.277 µM
2,O=C1N/C(=N/N=C/c2cccs2)N/C1=C\c1ccco1,inactive: > 100 µM
3,C[C@@]12C[C@@H](c3ccccc3O1)N1CCCCSC1=N2,inactive: > 100 µM
4,Cn1ncc2[nH]cnc2c1=S,inactive: > 100 µM
5,CN1CCN(CCNc2ccc(CO)c3sc4ccccc4c(=O)c23)CC1,inactive: 7.28 µM
6,COc1cccc2c1C(=O)c1c(O)c3c(c(O)c1C2=O)C[C@@](O)(C(C)=O)C[C@@H]3OC1CC(N(Cc2ccccc2)Cc2ccccc2)C(O)C(C)O1 (some centres not stated),inactive: 14.4 µM
7,CC(=O)Nc1ccc2c3c(cc(O)c2c1)N(C(=O)CCCC(=O)Nc1ccc2c4c(cc(O)c2c1)N(C(=O)OC(C)(C)C)CC4CCl)CC3CCl (configuration not stated),inactive: 3 µM
8,O=C1CC(c2c(-c3ccccc3)[nH]c3ccccc23)C(=O)N1 (configuration not stated),inactive: > 100 µM
9,CCOC(=O)O/N=C1/C(=C2/C(=O)Nc3ccccc32)Nc2ccccc21,inactive: 6.01 µM
10,CCOC(=O)/C=C(\C(=O)OCC)n1cc(C)c(=O)n(Cc2cnnn2CCCCOC(C)=O)c1=O,inactive: 24 µM
11,C=CCNc1ccc(C)cc1,inactive: > 100 µM
12,Nc1ncnc2c1ncn2C(=O)NC12CC3CC(CC(C3)C1)C2,inactive: > 100 µM
13,O/N=N/c1ccc([SH2]c2ccc3ccccc3c2)cn1,inactive: 40 µM
14,Cc1cs/c(=N\C(P(=O)(O)O)P(=O)(O)O)n1C,inactive: > 100 µM
15,CSCC[C@@H](NC(=O)[C@H](CC(C)C)NC(=O)C(Cc1cnc[nH]1)NC(=O)CNC(=O)[C@@H](NC(=O)[C@H](C)NC(=O)[C@H](Cc1c[nH]c2ccccc12)NC(=O)[C@H](CCC(N)=O)NC(=O)[C@@H](N)CC(N)=O)C(C)C)C(N)=O (some centres not stated),inactive: > 100 µM
16,CCOC1c2cc(C(C)C)c(O)c(O)c2[C@@]23CCCC(C)(C)C2C1OC3=O (some centres not stated),inactive: > 100 µM
17,C[C@@H](CC(O)C1OC1(C)C)[C@@H]1CC[C@]2(C)C3=CCC4C(C)(C)C(O)CC[C@]4(C)C3CCC12C (some centres not stated),inactive: 26.5 µM
18,CCN(CC)CCNc1ccc2nnn3c4ccc(C)cc4c(=O)c1c23,inactive: 6.89 µM
19,CCOC(=O)c1cnc2oc3ccc(O)cc3c2c1C,inactive: 71 µM
20,CN1CCN(c2nc3cc(F)ccc3n3cccc23)CC1,inactive: 28.4 µM
21,BC(=O)NC(CC(C)C)C(=O)NCC(=O)NC1c2ccsc2C(=O)C1O.CN(C)C (configuration not stated),inactive: > 100 µM
22,CC1=NN(c2nc(N)nc(CSc3cc(Cl)c(C)cc3S(N)(=O)=O)n2)C(C)(C)C1,inactive: > 10 µM
23,CC(C)C[C@H](NC(=O)[C@H](Cc1ccccc1)NC(=O)CCc1ccccc1)B(O)O,active: < 0.01 µM

# Source: ChEMBL document CHEMBL1201862, “PubChem BioAssay data set” (2004)
